# Experimental data from paper PMC4336329 (PLoS ONE, 2015).
# Among all 310,000 compounds or so, about 14,000 (4.5%) showed an effect of 50% or more. Effects have a minus sign here. Some of the results follow.
# Target: human ether-à-go-go-related gene (hERG) potassium channel (human, UniProt Q12809)
# Experiment: primary screen, population patch clamp on CHO cells stably expressing hERG
# 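Note: peak tail current of the secondary pulse compared with the same well before compound.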
# Chain of human ether-à-go-go-related gene (hERG) potassium channel (Q12809 whole entry, looked up): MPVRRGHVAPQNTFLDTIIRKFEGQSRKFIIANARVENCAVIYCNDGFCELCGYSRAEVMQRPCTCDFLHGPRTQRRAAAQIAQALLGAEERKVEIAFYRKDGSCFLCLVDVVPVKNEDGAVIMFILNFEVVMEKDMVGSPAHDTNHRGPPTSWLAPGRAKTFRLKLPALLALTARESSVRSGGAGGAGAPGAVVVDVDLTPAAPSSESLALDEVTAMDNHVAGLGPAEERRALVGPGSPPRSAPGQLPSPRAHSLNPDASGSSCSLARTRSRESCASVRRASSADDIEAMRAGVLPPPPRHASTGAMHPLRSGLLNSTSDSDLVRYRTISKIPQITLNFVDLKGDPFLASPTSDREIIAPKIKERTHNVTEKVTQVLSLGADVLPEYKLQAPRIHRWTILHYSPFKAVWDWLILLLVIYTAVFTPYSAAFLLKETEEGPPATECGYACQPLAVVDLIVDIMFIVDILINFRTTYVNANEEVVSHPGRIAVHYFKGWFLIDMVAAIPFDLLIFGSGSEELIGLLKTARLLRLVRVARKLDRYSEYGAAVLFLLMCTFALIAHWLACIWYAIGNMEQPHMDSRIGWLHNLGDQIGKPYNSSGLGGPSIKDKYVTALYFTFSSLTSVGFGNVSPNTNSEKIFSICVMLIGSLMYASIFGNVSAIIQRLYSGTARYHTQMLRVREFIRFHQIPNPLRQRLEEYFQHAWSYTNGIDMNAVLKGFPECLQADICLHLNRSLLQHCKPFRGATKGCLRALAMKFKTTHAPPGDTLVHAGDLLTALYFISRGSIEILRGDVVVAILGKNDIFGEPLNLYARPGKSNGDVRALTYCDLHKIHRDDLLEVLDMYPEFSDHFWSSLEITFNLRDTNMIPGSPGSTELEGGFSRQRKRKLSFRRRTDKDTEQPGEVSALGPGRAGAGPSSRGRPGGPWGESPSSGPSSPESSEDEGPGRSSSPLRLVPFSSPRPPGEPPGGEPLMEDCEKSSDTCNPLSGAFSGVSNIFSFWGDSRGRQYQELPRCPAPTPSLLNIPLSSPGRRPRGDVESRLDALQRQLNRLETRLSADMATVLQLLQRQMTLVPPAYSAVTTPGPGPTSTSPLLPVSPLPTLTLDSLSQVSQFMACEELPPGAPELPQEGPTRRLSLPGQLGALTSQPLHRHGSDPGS
row,Compound,"hERG current change (%, negative = inhibition) at 10uM"
1,COc1ccc2[nH]c(C)c(CCNC(=S)Nc3ccc(F)cc3)c2c1,-12.1%
2,COc1ccc(C)cc1S(=O)(=O)N(CC(=O)O)c1ccc(C)cc1,5.39%
3,CCOC(=O)c1cccc(C2=CC(=O)C[C@H](c3ccc(OC)cc3)C2)c1,-8.47%
4,CC(C)Oc1cccc(C(=O)Nc2ccc(N3CCN(S(C)(=O)=O)CC3)cc2)c1,-0.708%
5,CCOC(=O)c1c(/N=C/N(C)C)sc(/C=N/Nc2ccccc2)c1-c1ccc(Cl)cc1,23.8%
6,COc1ccc(/C=C2/NC(=O)N(Cc3ccccc3F)C2=O)cc1OC,3.22%
7,O=C(NCCN1CCOCC1)c1cc(-c2ccc(F)cc2)on1,-13.9%
8,Cc1ccc(-c2ccc(/C=N/NC(=S)Nc3ccccc3)o2)cc1[N+](=O)[O-],12.7%
9,Cc1cc(C)n(-c2nc3ccccc3nc2N2CCC(C)CC2)n1,-16.1%
10,Cc1cc(C)n(-c2ccc(OCC(=O)O)nn2)n1,2%
11,COC(=O)c1ccccc1NC(=O)CN1CCC(C)CC1,9.3%
12,C#CCNC(=O)C1=C[C@H](c2ccc(Br)cc2)C[C@H](OCc2ccc(CO)cc2)O1,-18.6%
13,CC(=O)Nc1ccc(Nc2cc(C)nc(Nc3ccc(NC(C)=O)cc3)n2)cc1,11.3%
14,O=C1NC(=O)N(CCc2ccc(F)cc2)C(=O)/C1=C/c1cccs1,16.1%
15,Cc1ccc(S(=O)(=O)N2CCOCC2)cc1NC(=O)CNC1CCCC1.O=C(O)C(=O)O,5.67%
16,CCOC(=O)Cc1csc(NC(=O)C(C)c2ccc([N+](=O)[O-])cc2)n1 (stereo not shown),-55.9%
17,COc1ccccc1OC(=O)c1ccc2nsnc2c1,8.28%
18,CCOC(=O)c1cnc2ccc(C(=O)OC)cc2c1Nc1ccc(C(=O)O)cc1.Cl,5.66%
19,O=C(O)c1nnn(-c2ccc([N+](=O)[O-])cc2)c1-c1ccccc1,-4.49%
20,Cc1cc(=O)oc2c3c(cc(OCC(=O)Nc4ccc(CCO)cc4)c12)OC(C)(C)CC3,0.169%
21,CCn1c(=O)c2c(nc3n2CCCN3CCc2ccc(OC)c(OC)c2)n(C)c1=O,-5.18%
22,CCC(=O)Nc1cccc(-n2nnnc2SCC(=O)NCc2ccco2)c1,0.69%
23,COCCn1nnnc1C(c1ccc(OC)cc1)N1CCN(C(=O)c2ccco2)CC1.Cl (stereo not shown),-4.77%
24,CCCCSc1nc2sc3c(c2c(=O)n1-c1ccc(C)cc1)CCN(C)C3,-4.38%
25,Cc1ccc(S(=O)(=O)N2CCN(C(=O)c3cc(C4CC4)nc4c3cnn4C(C)C)CC2)cc1,3.85%
26,C=CCNC(=O)c1ccccc1NC(=O)C1COc2ccccc2O1 (stereo not shown),4.92%
27,O=C(Nc1ccccc1)C1CCCCC1,-1.86%
28,O=C(CSc1nnnn1C1CCCC1)NCc1cccs1,23.4%

row,Compound,"hERG current change (%, negative = inhibition) at 10uM"
1,CCC(=O)c1ccc(OCC(=O)Nc2ccc(N3CCOCC3)cc2N2CCOCC2)cc1,4.98%
2,CCOC(=O)c1ccc(COC(=O)CCc2nc3ccccc3[nH]c2=O)o1,5.57%
3,Cc1ccc(CNCC2CCCO2)o1 (stereo not shown),7.37%
4,O=C(O)CN1C(=O)S/C(=C\c2ccc3c(c2)OCO3)C1=O,13%
5,CN1CCN(C(=O)C2(NC(=O)Nc3ccccc3Cl)CCCCC2)CC1,11.9%
6,O=C(N/N=C/c1ccccc1)c1ccc(N2CCCC2=O)cc1,5.87%
7,CC(C)c1ccc(OCC(O)CN2CCN(c3ccccn3)CC2)cc1.Cl (stereo not shown),-63.7%
8,O=C(Cc1ccc(F)cc1)Nc1ccc(Cl)cn1,7.09%
9,Cc1cccc(NC(=O)c2ccoc2C)n1,16.8%
10,O=C(CNC(=O)c1ccccc1F)NCCc1ccccc1F,1.09%
11,O=C(CCn1c(=O)oc2cc(Cl)ccc21)Nc1ccc(O)cc1,-15.3%
12,O=C(Cn1nc(-c2ccccc2)c2ccccc2c1=O)Nc1cccnc1,2.61%
13,CCc1ccc(N2CC(C(=O)OCC(=O)NNC(=O)c3ccccc3)CC2=O)cc1 (stereo not shown),4.54%
14,COc1ccc(CCNC(=O)C2CCC(=O)N2CCc2ccccc2)cc1OC (stereo not shown),12.4%
15,CCCCC(=O)NC(=O)NC(c1ccccc1)c1ccccc1,-2.42%
16,O=C(CN1C(=O)NC2(CCCCCCC2)C1=O)Nc1ccc(Br)cc1,5.19%
17,CC(C)C(C)(C#N)NC(=O)CSc1nc2scc(-c3ccc(F)cc3)c2c(=O)n1Cc1ccccc1 (stereo not shown),8.08%
18,COCCNC(=S)NNC(=O)CSCc1ccc(Cl)cc1Cl,9.06%
19,COc1ccc(C)cc1S(=O)(=O)N(CC(=O)N1CCCC1)c1ccc(C)cc1,-53%
20,Cc1nc2cc(N)ccc2n1-c1ccccc1,0.742%
21,COCCNC(=O)CN1CCN(C(c2ccccc2)c2ccccc2)CC1.O=C(O)C(=O)O,-7.42%
22,CCOC(=O)c1oc2cc(OCC(N)=O)ccc2c(=O)c1-c1ccc(OC)c(OC)c1,14.8%
23,Cc1ccc(Cn2nnc3c(=O)n(CC(=O)NCC4CCCO4)cnc32)cc1 (stereo not shown),-12.6%
24,COc1ccc(CN2C(=NC(=O)CCC3CCCC3)SC3CS(=O)(=O)CC32)cc1 (stereo not shown),19.7%
25,O=C(COc1ccc2ccccc2c1)Nc1cccc2cccnc12,19.3%
26,O=C(O)c1cc(NC(=O)c2ccc(Br)cc2)cc(NC(=O)c2ccc(Br)cc2)c1,17.6%
27,CCOC(=O)N1CCN(C(=O)C2CCC(CNS(=O)(=O)c3ccccc3)CC2)CC1 (stereo not shown),3.18%
